20 molecules from PMC9911399, “Two distinct binding modes provide the RNA-binding protein RbFox with extraordinary sequence specificity” can be followed below.

The chains are these.
T1: RBFOX1 RRM RbFoxmut (Fox-RRM*) (Homo sapiens, UniProt Q9NWB1 109-208, R118D;E147R;N151S;E152T)
T1 sequence: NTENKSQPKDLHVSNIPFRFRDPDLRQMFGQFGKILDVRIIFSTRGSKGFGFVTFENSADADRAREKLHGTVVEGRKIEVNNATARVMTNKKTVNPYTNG

B1: CAAGCCU (DNA:RNA)
RNA: GGGAGACCGGAAUUCAGAUUGUCCCAAGCCUUUAAAUCCCGUCGUAGCCACCA
DNA 1: CAATCTGAATTCCGGTCTCCC
DNA 2: TGGTGGCTACGACGGGATT
B2: ACAAGUC (DNA:RNA)
RNA: B1 RNA with C25A, A26C, G28A, C29G, C30U, U31C
DNA 1: CAATCTGAATTCCGGTCTCCC
DNA 2: TGGTGGCTACGACGGGATT
B3: CAUACAG (DNA:RNA)
RNA: B1 RNA with A27U, G28A, C30A, U31G
DNA 1: CAATCTGAATTCCGGTCTCCC
DNA 2: TGGTGGCTACGACGGGATT
B4: UGGAUGC (DNA:RNA)
RNA: GGGAGACCGGAAUUCAGAUUGUCCUGGAUGCUUAAAUCCCGUCGUAGCCACCA
DNA 1: CAATCTGAATTCCGGTCTCCC
DNA 2: TGGTGGCTACGACGGGATT
B5: CCUCCCU (DNA:RNA)
RNA: B1 RNA with A26C, A27U, G28C
DNA 1: CAATCTGAATTCCGGTCTCCC
DNA 2: TGGTGGCTACGACGGGATT
B6: CCAUGCU (DNA:RNA)
RNA: B1 RNA with A26C, G28U, C29G
DNA 1: CAATCTGAATTCCGGTCTCCC
DNA 2: TGGTGGCTACGACGGGATT
B7: GUAGGUC (DNA:RNA)
RNA: B1 RNA with C25G, A26U, C29G, C30U, U31C
DNA 1: CAATCTGAATTCCGGTCTCCC
DNA 2: TGGTGGCTACGACGGGATT
B8: UAAGUUU (DNA:RNA)
RNA: B1 RNA with C25U, C29U, C30U
DNA 1: CAATCTGAATTCCGGTCTCCC
DNA 2: TGGTGGCTACGACGGGATT
B9: UGUCGAC (DNA:RNA)
RNA: B4 RNA with G27U, A28C, U29G, G30A
DNA 1: CAATCTGAATTCCGGTCTCCC
DNA 2: TGGTGGCTACGACGGGATT
B10: ACGUAUA (DNA:RNA)
RNA: B4 RNA with U25A, G26C, A28U, U29A, G30U, C31A
DNA 1: CAATCTGAATTCCGGTCTCCC
DNA 2: TGGTGGCTACGACGGGATT
B11: UCCCAAA (DNA:RNA)
RNA: B4 RNA with G26C, G27C, A28C, U29A, G30A, C31A
DNA 1: CAATCTGAATTCCGGTCTCCC
DNA 2: TGGTGGCTACGACGGGATT
B12: AACGGCU (DNA:RNA)
RNA: B1 RNA with C25A, A27C, C29G
DNA 1: CAATCTGAATTCCGGTCTCCC
DNA 2: TGGTGGCTACGACGGGATT
B13: UGGGCCG (DNA:RNA)
RNA: B1 RNA with C25U, A26G, A27G, U31G
DNA 1: CAATCTGAATTCCGGTCTCCC
DNA 2: TGGTGGCTACGACGGGATT
B14: GCAGUAA (DNA:RNA)
RNA: B1 RNA with C25G, A26C, C29U, C30A, U31A
DNA 1: CAATCTGAATTCCGGTCTCCC
DNA 2: TGGTGGCTACGACGGGATT
B15: UUUUUCC (DNA:RNA)
RNA: B4 RNA with G26U, G27U, A28U, G30C
DNA 1: CAATCTGAATTCCGGTCTCCC
DNA 2: TGGTGGCTACGACGGGATT
B16: UCAACAG (DNA:RNA)
RNA: B1 RNA with C25U, A26C, G28A, C30A, U31G
DNA 1: CAATCTGAATTCCGGTCTCCC
DNA 2: TGGTGGCTACGACGGGATT
B17: UGUGUAU (DNA:RNA)
RNA: B4 RNA with G27U, A28G, G30A, C31U
DNA 1: CAATCTGAATTCCGGTCTCCC
DNA 2: TGGTGGCTACGACGGGATT
B18: GCUGUGC (DNA:RNA)
RNA: B4 RNA with U25G, G26C, G27U, A28G
DNA 1: CAATCTGAATTCCGGTCTCCC
DNA 2: TGGTGGCTACGACGGGATT
B19: ACAGGAG (DNA:RNA)
RNA: B1 RNA with C25A, A26C, C29G, C30A, U31G
DNA 1: CAATCTGAATTCCGGTCTCCC
DNA 2: TGGTGGCTACGACGGGATT
B20: GUGAGGC (DNA:RNA)
RNA: B4 RNA with U25G, G26U, U29G
DNA 1: CAATCTGAATTCCGGTCTCCC
DNA 2: TGGTGGCTACGACGGGATT

Where a chain is given by its changes, count along the chain named. The list shows a part of the results.

The target of the assay is T1, RBFOX1 RRM RbFoxmut (Fox-RRM*). Nature of the assay: EMSA; HiTS-Eq, 1 nM pool, 10 min; buffer printed only for the single-RNA assays: 10 mM Tris pH 7.5, 150 mM NaCl, 3.4 mM EDTA, 0.001% NP-40, 30 C. To be noted: tags: His6 N-terminal (pET28a); label: 5' 32P. Put shortly: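 Purified wild-type or mutant RbFox RRM at increasing concentrations was equilibrated with 1 nM of 5′-radiolabelled RNA carrying 7 randomized nucleotides for 10 min in 50 µL. Unbound RNA was separated by 8% native PAGE and sequenced. Relative association constants came from read-count changes of each RNA species compared with the control reaction, normalised to the cognate motif.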
As to B1, the binding signal was 0.102 KA relative to UGCAUGU.

Turning to B2, the binding signal is 0.0675 KA relative to UGCAUGU.

Consider B3, for which the binding signal is 0.0983 KA relative to UGCAUGU.

B4: the binding signal was 0.438 KA relative to UGCAUGU.

Consider B5, for which the binding signal was 0.0469 KA relative to UGCAUGU.

As for B6, the binding signal is 0.1 KA relative to UGCAUGU.

As for B7, the binding signal was 0.156 KA relative to UGCAUGU.

As to B8, the binding signal is 0.0917 KA relative to UGCAUGU.

With B9, the binding signal is 0.0944 KA relative to UGCAUGU.

With B10, the binding signal is 0.148 KA relative to UGCAUGU.

On to B11, for which the binding signal was 0.055 KA relative to UGCAUGU.

B12: the binding signal was 0.0834 KA relative to UGCAUGU.

Consider B13, for which the binding signal is 0.215 KA relative to UGCAUGU.

B14: the binding signal is 0.0991 KA relative to UGCAUGU.

Regarding B15, the binding signal is 0.0338 KA relative to UGCAUGU.

Regarding B16, the binding signal was 0.0843 KA relative to UGCAUGU.

Turning to B17, the binding signal was 0.209 KA relative to UGCAUGU.

Regarding B18, the binding signal was 0.151 KA relative to UGCAUGU.

On to B19, for which the binding signal was 0.103 KA relative to UGCAUGU.

On to B20, for which the binding signal was 0.0946 KA relative to UGCAUGU.
